Whole data set: some 33,000 sequences, median “E-score (-0.5 to 0.5)” near -0.035, cut for the highest 2% near 0.34. The list shows a part of the results.
biological target: T1, Mot3 (UniProt P54785); assay: PBM E-score (8-mer binding enrichment) (E-score (-0.5 to 0.5)); higher = stronger / more preferred TF binding; most listed sequences are background and not binding sites; settings: protein concentration: 200 nM; construct: GST-full length
T1 sequence: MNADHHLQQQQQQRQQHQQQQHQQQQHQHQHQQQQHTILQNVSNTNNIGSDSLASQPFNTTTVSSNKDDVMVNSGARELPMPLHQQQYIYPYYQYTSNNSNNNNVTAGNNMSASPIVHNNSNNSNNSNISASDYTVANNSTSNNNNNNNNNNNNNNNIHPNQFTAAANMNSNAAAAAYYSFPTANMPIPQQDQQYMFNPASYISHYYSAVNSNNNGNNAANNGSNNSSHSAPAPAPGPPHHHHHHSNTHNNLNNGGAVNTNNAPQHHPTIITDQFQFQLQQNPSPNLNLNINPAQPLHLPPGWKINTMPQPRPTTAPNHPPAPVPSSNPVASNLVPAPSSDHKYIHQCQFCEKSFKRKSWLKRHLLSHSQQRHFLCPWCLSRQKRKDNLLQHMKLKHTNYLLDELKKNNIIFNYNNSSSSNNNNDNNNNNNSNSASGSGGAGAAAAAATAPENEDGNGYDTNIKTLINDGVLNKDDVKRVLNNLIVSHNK
Experimental: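 Universal 'all 10-mer' protein binding microarrays (Agilent AMADID 015681) probed with GST-tagged S. cerevisiae TFs (full-length or DBD) made by in vitro transcription/translation (PURExpress), about 100-200 nM. Bound TF was detected with fluorescent anti-GST. Each ungapped 8-mer (which stands for itself and its reverse complement) is scored by the PBM enrichment score (E-score), a modified Wilcoxon-Mann-Whitney statistic from -0.5 to +0.5, computed with the Universal PBM Analysis Suite. Scale: above 0.35 generally sequence-specific binding.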

Sequence | PBM E-score
AGCGAATA | -0.188
TCAATGCA | 0.0286
CTGATGTA | 0.06
AAATGTGT | 0.215
AGACGTCT | -0.264
ACCAGGGT | -0.31
CAGAATGG | -0.224
GGGTAAAC | -0.0508
GAACAGTA | 0.0147
ACCTTGAG | 0.046
CCGGCCCC | -0.378
GTTATACA | 0.295
GAGGGGAA | -0.296
CGATTCTC | -0.141
ACGTACTA | 0.158
GCGCTCCA | -0.136
CCTACTCC | 0.0732
GACCCGCA | -0.139
ATTAAACC | 0.0249
ATTCTTGG | -0.0632
GGACTTGA | -0.278
CGGACGAA | -0.0412

Sequence | PBM E-score
ACGGGCCC | -0.168
GGCCCACC | -0.222
AGACCCCT | -0.181
ATCAATGA | 0.111
GAAGGTCA | 0.031
CCGTTCAC | -0.251
CCTACGAA | 0.132
CGACGGAG | -0.151
ATTGATGG | 0.0374
CACCGGTG | -0.379
CTTGTGTA | 0.333
CCGAAAGA | -0.0786
CGCATCGC | -0.268
GAATCTCC | -0.126
CCCTTCTC | -0.136
ACCTCCTC | -0.15
CTAGTAAC | 0.0483
GACAATAA | -0.0186
CGACACTC | -0.168
ATCCTCCG | -0.354
ATCGTCGC | 0.0287
CAGCGCGG | -0.14

Sequence | PBM E-score
GCCCCACA | -0.15
AAAGAGCG | -0.247
AACAAGCC | 0.0347
GCTATTCC | -0.25
CGTCCTTA | -0.185
GCGGGTCC | -0.274
CTGGCTCA | -0.196
CGTGGGAC | -0.283
TCGAACAA | 0.0662
AATATAGG | 0.202
GAATTGAC | 0.0399
ATGCCTTG | 0.267
CCAGGGCG | -0.231
CTCCACGA | -0.171
ACATCTGG | -0.189
GAAGGAGC | -0.251
CATATTCG | -0.0946
GTAGACAA | 0.219
GCGTATAA | 0.239
CGCGCTCC | -0.0668
AACTCCGG | -0.178
GAGTGCTA | -0.275

Sequence | PBM E-score
ATCTATAG | -0.0456
CTGATCCA | 0.0225
ACATCAAG | 0.119
TGAACCAA | 0.165
AAATCAAA | 0.067
ATCGCTAC | -0.15
AGTTACCG | -0.0154
ACGGTATG | 0.136
AGTTTGTC | -0.0507
AATACGGG | 0.0453
CGCCCGTC | -0.113
ACAGCGCC | -0.0469
AAGACCTA | -0.111
ACAGGTCA | 0.0389
CTCGGGTA | -0.0157
GTAAGGTA | 0.321
GCGCCGCC | -0.0908
ATTCTACG | 0.105
GTGTACTA | 0.255
GTCGGAAA | -0.109

— the supplement of paper PMC3334620
